Data published in the RNAGym collection of RNA variant scans (doi:10.1093/nar/gkz1192).
The source gives no read counts; variants with many changes may rest on few reads.

B1: CPEB3 Ribozyme (parent)
chain: UAACAGGGGGCCACAGCAGAAGCGUUCACGUCGCAGCCCCUGUCAGAUUCUGGUGAAUCUGCGAAUUCUGCUGUAUAUCUC

Variants of: B1
Assay: self-cleavage, relative activity (ratio to wild type); higher = more cleavage; in vitro, sequencing
Outline: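 Libraries of CPEB3 self-cleaving ribozyme mutants came from rounds of error-prone PCR and carried barcodes, which DNA sequencing matched to variants. In vitro transcription used T7 RNA polymerase at 37°C for 5 hours, with a further 15 min in DNase I before EDTA stopped the reaction; the ribozymes cleaved during both steps. The RNA was reverse transcribed with template switching and sequenced on Illumina. Relative activity is the cleaved/total read fraction of a variant divided by that of the unmutated ribozyme, averaged over three batches with at least 5 reads.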

Row | Variant | self-cleavage
1 | A18G U41A G70A | 0.29
2 | A18G U41A U49C U58C | 0.31
3 | A18G U41A U51A | 0.37
4 | A18G U41A U54C | 0.11
5 | A18G U41A U54C A64G U78C | 0.2
6 | A18G U41A U58C U69A U72C | 0.08
7 | A18G U41A U60A | 0.28
8 | A18G U41A U67A | 0.38
9 | A18G U41A U72C U80C | 0.25
10 | A18G U41A U80A | 0.31
11 | A18G U41A U80C | 0.24
12 | A18G U41C A45G A56G U78C | 0.31
13 | A18G U41C A47U U51G U69C U76C | 0.2
14 | A18G U41C A56C U66C C68A U72A | 0.05
15 | A18G U41C A56G U69G U72C | 0.34
16 | A18G U41C A56U C62U U66C | 0.16
17 | A18G U41C A57G U72C | 0.64
18 | A18G U41C A64G | 0.27
19 | A18G U41C A64U | 0.18
20 | A18G U41C A65U | 0.18
21 | A18G U41C C44U U67C | 0.18
22 | A18G U41C C59G | 0.24
23 | A18G U41C U43C A64G U78C | 0.3
24 | A18G U41C U43C U58C U74A | 0.35

Row | Variant | self-cleavage
25 | A18G U41C U49C A64G U78C | 0.61
26 | A18G U41C U49C G53A U67C U74A U78C | 0.3
27 | A18G U41C U51C | 0.67
28 | A18G U41C U51C U66C | 0.43
29 | A18G U41C U51C U80A | 0.6
30 | A18G U41C U60C G63C | 0.17
31 | A18G U41C U69C | 1.13
32 | A18G U41C U72C | 0.37
33 | A18G U41C U74C | 0.48
34 | A18G U41C U78C | 0.77
35 | A18G U41C U80C | 0.96
36 | A18G U41G U69G | 0.31
37 | A18G U43A A45G A56G | 0.27
38 | A18G U43A A64U U74C U80C | 0.43
39 | A18G U43A C62U U66A | 0.44
40 | A18G U43A G52C | 0.88
41 | A18G U43A U48A U51A U60G | 0.06
42 | A18G U43A U51A | 0.49
43 | A18G U43A U51C G53C A56U U69G U72G | 0.09
44 | A18G U43A U51C U60A | 0.31
45 | A18G U43A U58G U69C | 0.15
46 | A18G U43A U72C | 0.63
47 | A18G U43A U72C A75U U80C | 0.84
48 | A18G U43A U80A | 1.09

Row | Variant | self-cleavage
49 | A18G U43A U80C | 1.03
50 | A18G U43C A57G U60A | 0.2
51 | A18G U43C A64U | 0.38
52 | A18G U43C A65G U66G | 0.08
53 | A18G U43C A75C | 0.37
54 | A18G U43C A77U | 0.34
55 | A18G U43C C50U U72C A75U | 0.2
56 | A18G U43C G46U A47G C59U U67A | 0.08
57 | A18G U43C G63C U66A | 0.13
58 | A18G U43C U48A U54C A75U | 0.18
59 | A18G U43C U49A A77G | 0.1
60 | A18G U43C U49A U54C U67C | 0.11
61 | A18G U43C U49C C81U | 0.15
62 | A18G U43C U51C U58C U74A | 0.3
63 | A18G U43C U54C A56U | 0.15
64 | A18G U43C U54C U67A | 0.04
65 | A18G U43C U54G A56U A77U | 0.15
66 | A18G U43C U67C U78A | 0.1
67 | A18G U43C U69C A75G U76C | 0.35
68 | A18G U43C U78C | 0.32
69 | A18G U43C U80C | 0.56
70 | A18G U43G U51A | 0.02
71 | A18G U48A A77U | 0.19
72 | A18G U48A G61A | 0.12

Row | Variant | self-cleavage
73 | A18G U48C A56G U60C | 0.11
74 | A18G U48C A56U A65G | 0.08
75 | A18G U48C A57C | 0.19
76 | A18G U48C C50A G55U | 0.13
77 | A18G U48C C81G | 0.57
78 | A18G U48C U49C | 0.42
79 | A18G U48C U51A A75U U76C | 0.15
80 | A18G U48C U51C A56G U67G | 0.2
81 | A18G U48C U51C A56U | 0.22
82 | A18G U48C U51C A56U A64G | 0.12
83 | A18G U48C U51C C68U | 0.29
84 | A18G U48C U54G U60C A77G | 0.15
85 | A18G U48C U72G U74A | 0.11
86 | A18G U48C U74A | 0.75
87 | A18G U48C U80A | 0.46
88 | A18G U49A C71G U78C | 0.15
89 | A18G U49A G55A | 0.28
90 | A18G U49A U51C | 0.6
91 | A18G U49C A64G U66A U72C | 0.11
92 | A18G U49C A64G U78A | 0.17
93 | A18G U49C A65G | 0.14
94 | A18G U49C A65G U80A | 0.11
95 | A18G U49C A75U | 0.26
96 | A18G U49C G63A | 0.19

Row | Variant | self-cleavage
97 | A18G U49C U51C A77U | 0.16
98 | A18G U49C U51C U67A A77G | 0.19
99 | A18G U49C U51C U74A | 0.2
100 | A18G U49C U54C U67C G73A | 0.12
101 | A18G U49C U60A A65G | 0.11
102 | A18G U49C U78C C81U | 0.09
103 | A18G U49G U74C | 0.27
104 | A18G U51A A56G A64G U69C U74C | 0.37
105 | A18G U51A A56G A65G U66A U74C | 0.28
106 | A18G U51A C79U | 1.02
107 | A18G U51A U54C U72C U78C U80A | 0.33
108 | A18G U51A U67A U72C | 0.24
109 | A18G U51A U72C | 0.35
110 | A18G U51A U76C | 0.92
111 | A18G U51A U76G | 0.79
112 | A18G U51C A65U U80C | 0.46
113 | A18G U51C C68U | 0.43
114 | A18G U51C C71U | 0.38
115 | A18G U51C U60C | 0.24
116 | A18G U51C U60C U69C U72A | 0.25
117 | A18G U51C U67A | 0.34
118 | A18G U51C U72A | 0.37
119 | A18G U51C U74C U80C | 1.1
120 | A18G U51C U78C | 0.62

Row | Variant | self-cleavage
121 | A18G U51C U80A | 0.82
122 | A18G U51G U66C C68G U80C | 0.12
123 | A18G U51G U78C | 0.36
124 | A18G U54A U60A A64G U80C | 0.23
125 | A18G U54A U74A U78C | 0.81
126 | A18G U54C A56G | 0.41
127 | A18G U54C A57G U66G | 0.25
128 | A18G U54C A64C | 0.12
129 | A18G U54C A64G U72G U78C | 0.27
130 | A18G U54C A65U U80C | 0.17
131 | A18G U54C G55A | 0.48
132 | A18G U54C U58A A64G | 0.15
133 | A18G U54C U58G U67A | 0.38
134 | A18G U54C U60G | 0.18
135 | A18G U54C U76C | 0.51
136 | A18G U54C U80A | 1.04
137 | A18G U54G U69G | 0.28
138 | A18G U54G U72A | 0.39
139 | A18G U58C U66C | 0.24
140 | A18G U58C U76A | 0.23
141 | A18G U60A U69A U78C C81U | 0.2
142 | A18G U60A U80C | 0.36
143 | A18G U60C C62U U80C | 0.22
144 | A18G U60C G70C U80C | 0.18

Row | Variant | self-cleavage
145 | A18G U60G A64G G70C | 0.12
146 | A18G U66C A77G | 0.29
147 | A18G U66C U72G | 0.15
148 | A18G U66C U76A | 0.31
149 | A18G U67A U78C | 0.11
150 | A18G U67C U69C | 0.25
151 | A18G U67C U72A C81U | 0.25
152 | A18G U67C U72C | 0.28
153 | A18G U67C U74C | 0.18
154 | A18G U69C U72C | 1.23
155 | A18G U69C U80A | 1.22
156 | A18G U69G G73A | 0.47
157 | A18G U72A C79U | 0.39
158 | A18G U72A U74A | 0.65
159 | A18G U72A U78A | 0.21
160 | A18G U72C A75G A77U | 0.5
161 | A18G U72C U76A | 0.67
162 | A18G U76A U78C | 0.94
163 | A18G U76A U80C | 1.04
164 | A18G U78C U80C | 0.8
165 | A18G U80A C81U | 1
166 | A18U A20C U78A | 0.23
167 | A18U A20G A21G U51C G52A | 0.35
